About 14,000 (4.5%) of roughly 310,000 compounds showed an effect of 50% or more. The effect is printed as a negative number. Some of the results follow.
molecular target: human ether-à-go-go-related gene (hERG) potassium channel (human, UniProt Q12809); test: primary screen, population patch clamp on CHO cells stably expressing hERG
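Also: peak tail current of the secondary pulse compared with the same well before compound.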

human ether-à-go-go-related gene (hERG) potassium channel, sequence (Q12809 whole entry, looked up): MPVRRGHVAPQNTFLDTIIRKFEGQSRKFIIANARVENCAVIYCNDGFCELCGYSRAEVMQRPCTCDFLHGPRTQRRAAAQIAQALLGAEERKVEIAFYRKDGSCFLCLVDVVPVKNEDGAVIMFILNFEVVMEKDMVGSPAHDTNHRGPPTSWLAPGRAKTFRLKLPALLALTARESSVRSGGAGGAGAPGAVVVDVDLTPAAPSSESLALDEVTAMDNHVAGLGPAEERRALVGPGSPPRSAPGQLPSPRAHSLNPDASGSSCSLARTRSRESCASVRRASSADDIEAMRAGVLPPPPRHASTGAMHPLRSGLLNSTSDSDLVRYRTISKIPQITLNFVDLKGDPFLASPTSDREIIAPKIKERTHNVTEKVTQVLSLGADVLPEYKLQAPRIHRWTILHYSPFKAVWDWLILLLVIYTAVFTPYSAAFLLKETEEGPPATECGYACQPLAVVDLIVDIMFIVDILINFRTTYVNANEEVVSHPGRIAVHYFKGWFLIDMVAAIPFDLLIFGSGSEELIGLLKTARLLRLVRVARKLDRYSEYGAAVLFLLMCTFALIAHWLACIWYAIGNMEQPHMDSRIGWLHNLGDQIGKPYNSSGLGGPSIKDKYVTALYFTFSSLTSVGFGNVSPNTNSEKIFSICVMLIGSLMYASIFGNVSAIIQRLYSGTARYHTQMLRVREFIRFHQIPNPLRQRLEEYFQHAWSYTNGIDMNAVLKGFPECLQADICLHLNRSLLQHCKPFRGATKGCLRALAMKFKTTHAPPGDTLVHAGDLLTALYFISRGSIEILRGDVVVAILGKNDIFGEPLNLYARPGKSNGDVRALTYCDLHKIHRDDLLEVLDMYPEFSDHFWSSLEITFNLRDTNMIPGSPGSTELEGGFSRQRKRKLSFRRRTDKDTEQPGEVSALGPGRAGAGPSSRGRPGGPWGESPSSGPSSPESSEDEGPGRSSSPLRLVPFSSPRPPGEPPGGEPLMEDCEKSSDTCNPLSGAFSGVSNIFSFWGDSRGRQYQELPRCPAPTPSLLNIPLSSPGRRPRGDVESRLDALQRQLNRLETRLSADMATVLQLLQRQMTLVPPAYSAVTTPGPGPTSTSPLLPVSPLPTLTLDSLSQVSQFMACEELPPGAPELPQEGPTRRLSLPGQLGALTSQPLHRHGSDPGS

SMILES | hERG current change (%, negative = inhibition) at 10uM [%]
Clc1ccc(CSc2nncn2-c2ccccn2)cc1 | -28.7
CCn1c(NC(C)=O)c(-c2ccccc2Cl)c(=O)c2ccccc21 | 24.5
COc1ccc(/C=N/NC(=O)c2ccc(Cl)cc2)cc1COC(C)=O | -6.17
COc1cc(C(=O)OCC2CC(c3ccccc3)=NO2)cc(OC)c1OC (stereo not shown) | -41.8
CCOc1ccc(NC(=O)CCN2CCN(S(=O)(=O)c3ccc(Cl)cc3)CC2)cc1 | -26.7
CC(=O)c1c(C)nc(-c2ccc(Cl)cc2)nc1N | 0.695
O=C(COc1ccccc1F)Nc1ccccc1C(=O)NC1CC1 | -32.8
O=C(Nc1cccc(Cl)c1)c1ccc(-n2cncn2)c([N+](=O)[O-])c1 | -35
CCCCS(=O)(=O)N1CCCC(C(=O)Oc2ccccc2OC)C1 (stereo not shown) | 13.1
Cc1ccccc1-c1nc(-c2ccc(NC(=O)c3ccc(Br)o3)cc2)no1 | 3.28
CC(=O)N1N=C(c2ccco2)CC1c1cc2ccc(C)cc2nc1Cl (stereo not shown) | 12.2
COc1nc2ccccc2nc1CCC(=O)O | 17.9
CCN1C(=O)N(CC)c2cccc3cccc1c23 | 9.55
COc1ccc(NC(=O)CN2C(=O)NC(C)(C3CC3)C2=O)cc1S(=O)(=O)N1CCOCC1 (stereo not shown) | 18.2
COc1ccccc1CNC(=O)CN1CCC(NC(=O)c2ccccc2F)CC1.Cl | -14.5
O=C1NC(=O)N(Cc2ccccc2)C1=O | 26.4
Cc1cc2oc(C(=O)NCCc3ccc(S(N)(=O)=O)cc3)cc(=O)c2cc1C | 17.2
COc1ccc(NC(=O)C2C3C=CC4(O3)C2C(=O)N(CCN2CCCCC2C)C4C(=O)NC2CCCCC2)cc1 (stereo not shown) | 9.93
O=C(Cc1cccs1)Nc1ccccc1-c1nc2ccccc2[nH]1 | 19.7
C[C@H](NS(=O)(=O)c1ccc2c(c1)OCCCO2)C(=O)N1CCN(Cc2ccc(C#N)cc2)CC1 | -61.1
Cc1ccc(-c2cc(C(=O)N/N=C/c3ccc([N+](=O)[O-])o3)c3ccccc3n2)o1 | -15.9
O=C1Nc2cc(Br)ccc2C1(O)c1ccccc1O (stereo not shown) | 21.8

SMILES | hERG current change (%, negative = inhibition) at 10uM [%]
COc1cc(NC(=O)c2cc(C(C)C)on2)cc(OC)c1OC | 3.31
CCOCC(=O)Nc1ccc([N+](=O)[O-])cc1C | 5.75
CC(=O)NC(CC(=O)Nc1cccc(S(=O)(=O)N2CCCC2)c1)c1ccccc1 (stereo not shown) | 4.19
O=c1cc(CN2CCc3ccccc32)nc2sccn12 | 2.78
CCCCC1C2C(=O)N(c3ccccc3)C(=O)C2ON1c1ccccc1 (stereo not shown) | 2.38
CCC(=O)NCCc1cc2ccc(C)cc2[nH]c1=O | 1.71
Nc1cccc2c1C(=O)N(C(=O)c1ccc(Cl)c(S(=O)(=O)N3CCCCCC3)c1)C2=O | -6.44
COc1ccc(S(N)(=O)=O)cc1C(=O)NNC(=O)CN(C)S(=O)(=O)c1ccc(Cl)cc1 | -3.64
O=C(COc1ccc(S(=O)(=O)N2CCc3ccccc32)cc1Cl)NCc1ccccn1 | -25.5
O=C(c1cccc([N+](=O)[O-])c1)N1CCN(C(=O)c2ccco2)CC1 | -10.8
CS(=O)(=O)N(CC(=O)NCCSc1ccc(Cl)cc1)c1ccc2c(c1)OCO2 | -0.207
Cc1ccc(CNC(=O)CCn2cc(-c3ccc(F)cc3)nc2-c2ccncc2)cc1 | -50.1
O=C(O)CC(SCC(=O)NC1CCCc2ccccc21)C(=O)O (stereo not shown) | 10.4
CCCc1nc2ccccc2c(=O)n1NC(=O)c1c(O)c2cccc3c2n(c1=O)CCC3 | -5.34
CC(C)c1nn(-c2cc(C(F)(F)F)ccn2)c(=O)o1 | 4.34
COc1ccc(NS(=O)(=O)c2ccc(/C=C/C(=O)O)cc2)cc1S(=O)(=O)N1CCOCC1 | 20.6
COC(=O)[C@H](Cc1ccccc1)NC(=O)C1(OC(C)=O)CC(OC(C)=O)C(OC(C)=O)C(OC(C)=O)C1 (stereo partly shown) | 24.6
O=C(O)c1cc(N/N=C/c2c(O)ccc3ccccc23)ccc1Cl | 9.42
Cc1cc(C)nc(N2CCCC(C(=O)Nc3nnc(C)s3)C2)n1 (stereo not shown) | -6.91
Cn1nc([N+](=O)[O-])c2c(-c3nc4ccccc4s3)c(N)n(C3CCCCC3)c2c1=O | 6.66
CC(C)Oc1ccc(Cc2cnc(N)nc2N)cc1 | -13
Cc1csc2nc(O)c(C(=O)NC3CCCCC3)c(=O)n12 | -8.09

SMILES | hERG current change (%, negative = inhibition) at 10uM [%]
COc1ccc2nc(SC(C(=O)c3ccccc3)c3ccccc3)nc(C)c2c1 (stereo not shown) | 24.4
Cc1ccc(NC(=O)Cc2noc3ccccc23)nc1 | -8.24
CC(C)N=C(NC#N)SCc1ccccc1 | -33.2
COc1cc(Cn2nnc3ccccc32)ccc1O | 4.91
CCCN1CCC(=O)N([C@H](COc2ccccc2)c2ccccc2)CC1 | -78.2
Cn1cnc2c(N3CCCCC3)nccc21 | 4.92
Cc1ccccc1OCCSCc1nc2ccccc2[nH]1 | -19.5
Cc1c(C(=O)NCCN2C(=O)S/C(=C\c3cccs3)C2=O)cccc1[N+](=O)[O-] | -14.1
COc1ccc(OCCCCN2CCC(C)CC2)cc1.O=C(O)C(=O)O | -29
O=C(Cc1ccccc1)Nc1ccccc1C(=O)N1CCN(c2ccccc2)CC1 | 14.8
COCCNC(=O)c1onc(CSc2ccc(C)c(C)c2)c1C(=O)O | -15.2
CC(=O)N1CCc2c(sc(NC(=O)C3CCCCC3)c2C(N)=O)C1 | -10.4
CC(C)c1ccccc1NC(=S)NCc1ccccc1F | 19.9
Cn1c(=O)c(C(=O)NCCc2ccccc2)c(O)c2ccccc21 | 20.1
Nc1nc2c([N+](=O)[O-])cccc2s1 | 31.8
CCCOc1ccc(N2CC(C(=O)Nc3ccc(N4CCOCC4)cc3)CC2=O)cc1 (stereo not shown) | 36
Cc1cccc(C(=O)O)c1NC(=O)Cc1cccc2ccccc12 | 14.3
O=c1[nH]cc(S(=O)(=O)N2CCN(c3cccc(C(F)(F)F)c3)CC2)c(=O)[nH]1 | 17.6
CC(=C\c1ccccc1)/C=C1/SC(=O)N(CCCC(=O)Nc2ccc(C(=O)O)cc2)C1=O | 20.4
COc1ccc(CN(C)CC(=O)Nc2ccccc2-c2ccccc2)c(OC)c1 | 8.4
COc1ccc2nc(NC(=O)/C=C/c3ccc4c(c3)OCO4)sc2c1 | 4.89
C=CCc1cccc(C=Nc2cccn3cc(-c4ccccc4)nc23)c1O | 17.6

SMILES | hERG current change (%, negative = inhibition) at 10uM [%]
CNC(=S)NNC(=O)c1cccn(Cc2ccc(Cl)cc2Cl)c1=O | -19.5
CN(CC(=O)Nc1ccc(F)cc1)C(=O)CSc1ccc2c(c1)OCCO2 | -14.6
O=C1CC(=O)N(c2cccc(Br)c2)C(=O)N1 | 2.88
CCN(CC)CCCNc1nc2cc(OC)c(OC)cc2c2nc(-c3ccccc3)nn12 | -7.77
Cc1ccc(S(=O)(=O)N2CCOCC2)cc1NC(=O)C1=NN(c2ccccc2)C(=O)CC1 | -18
CCOc1cc(/C=N/Nc2nc(N3CCCC3)nc(N3CCCC3)n2)ccc1O | -61.4
O=c1c2ccccc2[nH]c(=S)n1CCN1CCN(Cc2ccccc2)CC1 | -19.8
O=S(=O)(/C=C/c1ccccc1)NCc1ccccc1Cl | -8.17
Cc1c(CCOC(=O)c2cc([N+](=O)[O-])ccc2Cl)sc[n+]1CCCCS(=O)(=O)[O-] | 25.3
CCC(=O)Nc1ccc(Cl)c(NC(=S)NC(=O)COc2ccccc2)c1 | 10.2
NC(=O)c1cc2ccncc2c2ccccc12 | 14.7
CC(C)Nc1nc(Cl)nc(N(C#N)CN2C(=O)c3ccccc3C2=O)n1 | -7.58
COc1ccccc1NS(=O)(=O)c1ccc(C(=O)NCC2(N(C)C)CCCCC2)cc1 | 3.78
CCN1CCC2(CC1)N=C(c1ccc(F)cc1)C(=S)N2 | -42.8
CCN(CC(=O)Nc1c(F)cccc1F)C(=O)c1cccc(S(=O)(=O)N(C)c2ccccc2)c1 | -15.5
COC(=O)CC1=NN(c2ccc(OC)cc2)C(=O)C1 | 12.5
CCOc1ccc(N2CC(C(=O)Oc3ccccc3)CC2=O)cc1 (stereo not shown) | -10.9
COC(=O)c1sccc1NC(=O)Nc1cccc([N+](=O)[O-])c1 | 0.108
O=C(Nc1nnc(-c2ccc(Cl)cc2)o1)c1ccccc1Br | -4.79
CCO[C@@H]1OC(C(=O)N2CCN(C)CC2)=C[C@H](C(C)(C)C)[C@H]1CCCO | 4.41
Cc1nnc(SC(C)C(=O)NCC2CCCO2)s1 (stereo not shown) | 0.203
Cc1onc(-c2ccccc2)c1C(=O)N1CCN(Cc2ccccc2)CC1 | 9.09

Reference: PMC4336329 (PLoS ONE, 2015)
